# PubChem BioAssay (Tox21)
# Inconclusive results, whose numbers are uncertain, are shown with a selection of clear calls. For some assays here: Potencies beside an inconclusive call are fits to weak or partial responses and may not hold up. The source made the active and inactive calls. Unless noted, the call rests on the fitted dose curve; in most records, active means well fitted curve in the direction sought with a large enough effect in the repeat runs; inconclusive means weak or mixed curves; inactive means no such curve, though single readings can be large; an effect the other way counts as inactive or inconclusive.
# Columns and labels:
# [1] = qHTS assay to identify small molecule that activate the aryl hydrocarbon receptor (AhR) signaling pathway - cell viability counter screen (AID 743086); further: nearly all actives have a fitted effect of over 45% in size
# Procedure, shortened: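 HepG2-AhR-luc (HG2L7.5c1) cells, 4000/well, treated 24 h at 37 C with compound; viability measured as CellTiter-Fluor fluorescence after 30 min in the same wells as the luciferase read.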
# [2] = biological target: Peroxisome proliferator-activated receptor gamma (Homo sapiens) (UniProt P37231); assay: qHTS assay to identify small molecule agonists of the peroxisome proliferator-activated receptor gamma (PPARg) signaling pathway (AID 743094; active means well fitted activation curve with a large enough effect in the signal ratio in the repeat runs, not every such curve was filed as active; inconclusive means weak or mixed curves, or effect the other way; inactive means no such curve, though single readings can be large or run the other way; the % refers to the signal ratio; on activation: on the % scale 0 is the no-effect control and ±100 the full control effect); settings: HEK293H PPARg-UAS-bla, beta-lactamase FRET ratio, 17 h; activation: at 57 µM (top of the series) unless noted
# UniProt P37231, sequence (P37231 whole entry, looked up): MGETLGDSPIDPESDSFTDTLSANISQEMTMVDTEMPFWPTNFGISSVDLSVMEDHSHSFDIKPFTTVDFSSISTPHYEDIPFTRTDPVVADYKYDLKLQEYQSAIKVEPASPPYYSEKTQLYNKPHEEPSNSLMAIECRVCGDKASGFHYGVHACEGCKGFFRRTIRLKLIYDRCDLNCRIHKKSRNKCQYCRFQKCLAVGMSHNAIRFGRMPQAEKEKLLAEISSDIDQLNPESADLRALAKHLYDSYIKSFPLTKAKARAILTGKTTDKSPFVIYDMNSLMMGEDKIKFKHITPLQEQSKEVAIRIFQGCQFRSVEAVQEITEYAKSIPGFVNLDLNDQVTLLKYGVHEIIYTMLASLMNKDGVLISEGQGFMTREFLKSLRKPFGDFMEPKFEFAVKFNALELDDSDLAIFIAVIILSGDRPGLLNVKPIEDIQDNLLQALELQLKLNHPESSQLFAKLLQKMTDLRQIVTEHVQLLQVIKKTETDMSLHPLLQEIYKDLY
# Procedure, shortened: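 Following 5 h plating at 37C, PPARg-bla HEK293H cells receive compound or DMSO for 17 h; fluorescence intensity is recorded after LiveBLAzer B/G loading for 1 h at room temperature.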
# [3] = biological target: Peroxisome proliferator-activated receptor gamma (Homo sapiens) (UniProt P37231); assay: qHTS assay to identify small molecule antagonists of the peroxisome proliferator-activated receptor gamma (PPARg) signaling pathway (AID 743191; calls by dose curve; further: nearly all actives have a fitted effect of over 30% in size; on ratio activity, negative = inhibition: on the % scale 0 is the no-effect control and ±100 the full control effect); settings: HEK293H PPARg-UAS-bla, beta-lactamase ratio, antagonist, 17 h; ratio activity, negative = inhibition: at 62.6 µM (top of the series) unless noted
# Procedure, shortened: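 GeneBLAzer PPARg UAS-bla HEK293H cells, 5 h post-plating, exposed to compounds 17 h at 37C. LiveBLAzer B/G FRET substrate added for 1 h at room temperature; beta-lactamase reporter read by fluorescence intensity.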
# [4] = qHTS assay to identify small molecule antagonists of the peroxisome proliferator-activated receptor gamma (PPARg) signaling pathway - cell viability counter screen (AID 743194); settings: PPARg-bla HEK293H viability, CellTiter-Glo luminescence, 17 h, co-treated with 50 nM rosiglitazone; activity change, negative = cytotoxicity: at 62.6 µM (top of the series) unless noted; further: nearly all actives have a fitted effect of over 55% in size
# Procedure, shortened: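 Cytotoxicity counter screen in PPARg-bla HEK293H cells, same wells as reporter assay. Compounds plus 50 nM rosiglitazone (final) for 17 h at 37 C, then viability read by CellTiter-Glo luminescence.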
# [5] = qHTS assay for small molecule agonists of the antioxidant response element (ARE) signaling pathway (AID 743202; active means well fitted activation curve with a large enough effect in the signal ratio in the repeat runs, not every such curve was filed as active; inconclusive means weak or mixed curves, or effect the other way; inactive means no such curve, though single readings can be large or run the other way; the % refers to the signal ratio); settings: HepG2 ARE-bla reporter, beta-lactamase FRET, 16 h; activation: at 73.3 µM (top of the series) unless noted
# Procedure, shortened: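 Agonist mode reporter screen: HepG2 cells with ARE-controlled beta-lactamase are incubated with test compounds for 16 h at 37 C, and beta-lactamase activity is measured as fluorescence of cleaved B/G FRET substrate.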
# [6] = qHTS assay to identify small molecule agonists of the peroxisome proliferator-activated receptor delta (PPARd) signaling pathway - cell viability counter screen (AID 743211); settings: PPARd-bla HEK293H viability, CellTiter-Glo luminescence, 17 h; activity change, negative = cytotoxicity: at 62.6 µM (top of the series); further: nearly all actives have a fitted effect of over 55% in size
# Procedure, shortened: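 Tox21 library compounds, delivered in DMSO, were incubated 17 h with PPARd-bla HEK293H cells; cytotoxicity was taken from CellTiter-Glo luminescence read 30 min after reagent addition.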
# [7] = biological target: Peroxisome proliferator-activated receptor delta (Homo sapiens) (UniProt Q03181); assay: qHTS assay to identify small molecule agonists of the peroxisome proliferator-activated receptor delta (PPARd) signaling pathway (AID 743212; calls by dose curve); settings: HEK293H PPARd-UAS-bla, beta-lactamase FRET ratio, 17 h; activation: at 62.6 µM (top of the series) unless noted
# UniProt Q03181, sequence (Q03181 whole entry, looked up): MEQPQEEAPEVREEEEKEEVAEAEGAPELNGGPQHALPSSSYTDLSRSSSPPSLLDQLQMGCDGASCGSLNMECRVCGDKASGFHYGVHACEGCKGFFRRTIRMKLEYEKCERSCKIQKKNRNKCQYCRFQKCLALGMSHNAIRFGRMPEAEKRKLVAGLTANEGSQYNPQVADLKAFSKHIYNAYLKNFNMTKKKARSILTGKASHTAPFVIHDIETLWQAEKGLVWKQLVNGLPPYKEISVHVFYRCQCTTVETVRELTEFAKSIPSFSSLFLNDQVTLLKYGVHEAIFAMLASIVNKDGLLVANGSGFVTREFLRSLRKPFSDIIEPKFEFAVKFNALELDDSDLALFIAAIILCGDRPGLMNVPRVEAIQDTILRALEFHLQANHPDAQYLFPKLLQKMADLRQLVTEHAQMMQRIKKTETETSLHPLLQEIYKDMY
# Procedure, shortened: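 Quantitative high-throughput agonist screen in a HEK293H beta-lactamase reporter line under UAS control. Compounds in DMSO, at 37 C. Fluorescence read after 2 h with FRET substrate at room temperature.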
# [8] = biological target: Peroxisome proliferator-activated receptor delta (Homo sapiens) (UniProt Q03181); assay: qHTS assay to identify small molecule antagonists of the peroxisome proliferator-activated receptor delta (PPARd) signaling pathway (AID 743215; active means well fitted inhibition curve with a large enough effect in the signal ratio in the repeat runs, not every such curve was filed as active; inconclusive means weak or mixed curves, or effect the other way; inactive means no such curve, though single readings can be large or run the other way; the % refers to the signal ratio;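 further: cells stimulated with agonist L165041 at 300 nM final during compound exposure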); settings: HEK293H PPARd-UAS-bla, beta-lactamase FRET ratio, antagonist, 17 h; ratio activity, negative = inhibition: at 62 µM (top of the series) unless noted
# Procedure, shortened: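 With L165041 present at 300 nM final, compounds were incubated 17 h at 37 C on PPARd UAS-bla HEK293H cells. A FRET-based beta-lactamase substrate was then applied for 2 h at room temperature and fluorescence intensity recorded.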
# [9] = qHTS assay to identify small molecule agonists of the farnesoid-X-receptor (FXR) signaling pathway - cell viability counter screen (AID 743218); settings: FXR-bla HEK293T viability, CellTiter-Glo luminescence, 16 h; viability change, negative = cytotoxic: at 62.6 µM (top of the series) unless noted; further: nearly all actives have a fitted effect of over 45% in size
# Procedure, shortened: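 After 16 h at 37 C with test compounds, FXR-bla HEK 293T cells were given LiveBLAzer B/G substrate for 2 h at RT and then CellTiter-Glo; luminescence was taken after 30 min.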
# [10] = qHTS assay to identify small molecule antagonists of the farnesoid-X-receptor (FXR) signaling pathway - cell viability counter screen (AID 743221; active means well fitted cell-killing curve with a large enough effect in the repeat runs, not every such curve was filed as active; inconclusive means weak or mixed curves, or effect the other way; inactive means no such curve, though single readings can be large or run the other way; further: nearly all actives have a fitted effect of over 50% in size); settings: FXR-bla HEK293T viability, CellTiter-Glo luminescence, 16 h; activity change, negative = cytotoxicity: at 62.6 µM (top of the series)
# Procedure, shortened: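 Cytotoxicity is taken from ATP luminescence (CellTiter-Glo, 30 min, room temperature) in FXR-bla HEK 293T cells previously incubated 16 h at 37 C with compound and chenodeoxycholic acid at 50 uM final.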
# [11] = biological target: Vitamin D3 receptor (Homo sapiens) (UniProt P11473); assay: qHTS assay to identify small molecule antagonists of the vitamin D receptor (VDR) signaling pathway (AID 743223; active means well fitted inhibition curve with a large enough effect in the signal ratio in the repeat runs, not every such curve was filed as active; inconclusive means weak or mixed curves, or effect the other way; inactive means no such curve, though single readings can be large or run the other way; the % refers to the signal ratio; on activity change, negative = inhibition: on the % scale 0 is the no-effect control and ±100 the full control effect); settings: VDR-UAS-bla HEK293T, beta-lactamase FRET ratio, 16 h; activity change, negative = inhibition: at 61 µM (top of the series) unless noted
# UniProt P11473, sequence (P11473 whole entry, looked up): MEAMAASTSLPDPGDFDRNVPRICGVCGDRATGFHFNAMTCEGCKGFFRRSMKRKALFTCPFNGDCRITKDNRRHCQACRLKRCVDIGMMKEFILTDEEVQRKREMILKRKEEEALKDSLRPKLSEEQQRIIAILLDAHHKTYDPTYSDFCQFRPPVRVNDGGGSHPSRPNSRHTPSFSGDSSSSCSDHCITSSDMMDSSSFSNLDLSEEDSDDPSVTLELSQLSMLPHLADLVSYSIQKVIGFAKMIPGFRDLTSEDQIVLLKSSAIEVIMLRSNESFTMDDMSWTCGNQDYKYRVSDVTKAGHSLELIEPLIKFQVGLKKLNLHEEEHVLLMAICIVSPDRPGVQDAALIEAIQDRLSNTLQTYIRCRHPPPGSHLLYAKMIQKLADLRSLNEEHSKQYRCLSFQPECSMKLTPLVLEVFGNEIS
# Procedure, shortened: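 Quantitative HTS in VDR-bla reporter cells stimulated with 1alpha,25-dihydroxyvitamin D3, 3 nM final. Compound exposure 16 h, 37C, 5% CO2. Read-out: beta-lactamase FRET substrate fluorescence, 2 h RT.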
# [12] = qHTS assay for small molecule activators of the heat shock response signaling pathway - cell viability counter screen (AID 743209); settings: HSE-bla HeLa viability, CellTiter-Glo luminescence, 5 h; activity change, negative = cytotoxicity: at 62.6 µM (top of the series) unless noted; further: nearly all actives have a fitted effect of over 50% in size
# Procedure, shortened: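 Counter screen for cytotoxicity in HeLa HSE-bla reporter cells. Treatment was 5 h at 37 C; viability was detected by luminescent ATP assay (CellTiter-Glo) in the same wells as the beta-lactamase read.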
# [13] = qHTS assay for small molecule activators of the heat shock response signaling pathway (AID 743210; active means well fitted activation curve with a large enough effect in the signal ratio in the repeat runs, with a control signal flat, not every such curve was filed as active; inconclusive means weak or mixed curves; the % refers to the signal ratio); settings: HeLa HSE-bla reporter, beta-lactamase ratio, 5 h; activation: at 62.6 µM (top of the series)
# Procedure, shortened: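 Quantitative high-throughput format using an engineered HeLa line in which heat shock response elements drive beta-lactamase; after 5 h with compound, cells received a B/G FRET substrate and fluorescence was read.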
# [14] = qHTS assay to identify small molecule antagonists of the peroxisome proliferator-activated receptor delta (PPARd) signaling pathway - cell viability counter screen (AID 743213); settings: PPARd-bla HEK293H viability, CellTiter-Glo luminescence, 17 h; viability change, negative = cytotoxic: at 62 µM (top of the series) unless noted; further: nearly all actives have a fitted effect of over 50% in size
# Procedure, shortened: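 HEK293H cells with the PPARd UAS-bla reporter, co-treated 17 h at 37 C with compounds and L165041 (300 nM final), were lysed with CellTiter-Glo. Luminescence indicated viable cell content.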
# [15] = biological target: Bile acid receptor (Homo sapiens) (UniProt Q96RI1); assay: qHTS assay to identify small molecule antagonists of the farnesoid-X-receptor (FXR) signaling pathway (AID 743217; active means well fitted inhibition curve with a large enough effect in the signal ratio in the repeat runs, not every such curve was filed as active; inconclusive means weak or mixed curves, or effect the other way; inactive means no such curve, though single readings can be large or run the other way; the % refers to the signal ratio); settings: HEK293T FXR-UAS-bla, beta-lactamase ratio, CDCA-stimulated, 16 h; activity change, negative = inhibition: at 62.6 µM (top of the series) unless noted
# UniProt Q96RI1, sequence (Q96RI1 whole entry, looked up): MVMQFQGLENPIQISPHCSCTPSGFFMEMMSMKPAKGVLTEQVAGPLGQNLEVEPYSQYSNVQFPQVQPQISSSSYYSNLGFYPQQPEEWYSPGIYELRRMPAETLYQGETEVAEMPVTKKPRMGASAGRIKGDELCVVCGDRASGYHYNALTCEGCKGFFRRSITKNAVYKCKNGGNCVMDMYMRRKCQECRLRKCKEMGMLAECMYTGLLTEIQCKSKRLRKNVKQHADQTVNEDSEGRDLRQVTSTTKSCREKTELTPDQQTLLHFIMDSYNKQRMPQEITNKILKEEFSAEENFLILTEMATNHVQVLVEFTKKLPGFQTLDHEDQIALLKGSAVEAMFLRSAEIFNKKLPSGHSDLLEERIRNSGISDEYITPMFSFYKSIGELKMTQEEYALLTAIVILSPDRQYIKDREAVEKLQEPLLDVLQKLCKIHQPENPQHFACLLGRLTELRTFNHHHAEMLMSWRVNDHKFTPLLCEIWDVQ
# Procedure, shortened: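 In this cell-based antagonist screen, inhibition of CDCA-driven (50 uM final) UAS-beta-lactamase expression in HEK 293T cells was measured by FRET fluorescence following 16 h compound exposure at 37 °C.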
# [16] = biological target: Bile acid receptor (Homo sapiens) (UniProt Q96RI1); assay: qHTS assay to identify small molecule agonists of the farnesoid-X-receptor (FXR) signaling pathway (AID 743220; active means well fitted activation curve with a large enough effect in the signal ratio in the repeat runs, not every such curve was filed as active; inconclusive means weak or mixed curves, or effect the other way; the % refers to the signal ratio); settings: HEK293T FXR-UAS-bla, beta-lactamase FRET ratio, 16 h; activation: at 62.6 µM (top of the series) unless noted
# Procedure, shortened: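 Beta-lactamase reporter under UAS control in GeneBLAzer FXR HEK 293T cells (5000/well) measured with LiveBLAzer FRET substrate after 2 h at room temperature. Compound exposure lasted 16 h at 37C.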
# [17] = biological target: Vitamin D3 receptor (Homo sapiens) (UniProt P11473); assay: qHTS assay to identify small molecule agonists of the vitamin D receptor (VDR) signaling pathway (AID 743222; calls by dose curve; on activation: on the % scale 0 is the no-effect control and ±100 the full control effect); settings: HEK293T VDR-UAS-bla, beta-lactamase FRET ratio, 16 h; activation: at 63.5 µM (top of the series) unless noted
# Procedure, shortened: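 VDR-bla cells were seeded, left 4 h, treated with compounds in DMSO for 16 h, incubated 2 h at RT with B/G FRET substrate, and read for fluorescence.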
# [18] = qHTS assay to identify small molecule agonists of the vitamin D receptor (VDR) signaling pathway - cell viability counter screen (AID 743224); settings: VDR-bla HEK293T viability, CellTiter-Glo luminescence, 16 h; activity change, negative = cytotoxicity: at 62.6 µM (top of the series) unless noted; further: nearly all actives have a fitted effect of over 50% in size
# Procedure, shortened: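 Here cell health was gauged by luminescent ATP detection (CellTiter-Glo, 30 min RT) in VDR-bla cells that had been incubated with test compounds for 16 h at 37C and 5% CO2.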
# [19] = qHTS assay to identify small molecule antagonists of the vitamin D receptor (VDR) signaling pathway - cell viability counter screen (AID 743225); settings: VDR-bla HEK293T viability, CellTiter-Glo luminescence, 16 h; viability change, negative = cytotoxic: at 61 µM (top of the series) unless noted; further: nearly all actives have a fitted effect of over 50% in size
# Procedure, shortened: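 Same-well multiplex: following 16 h treatment of HEK 293T cells carrying a UAS-driven beta-lactamase reporter with compound and agonist (3 nM final), and a 2 h FRET substrate step, CellTiter-Glo was added and luminescence read after 30 min.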
# Potency means the concentration at half of the fitted maximal effect; tags describe the fitted curve by direction and shape or compound fluorescence and quenching.
compound,measurement,setting,value
CC1=C(/C=C/C(C)=C/C=C/C(C)=C\C(=O)O)C(C)(C)CCC1,Potency,[1],"inconclusive: 54.6 µM [falling, partial curve, poor fit]"
same,Potency,[2],"inconclusive: 0.98 µM [activator, full curve]"
same,Potency,[3],"inconclusive: 55.1 µM [rising, single point]"
same,Potency,[4],"inconclusive: 55.1 µM [cytotoxic, single point]"
same,Potency,[5],"inconclusive: 68.8 µM [falling, single point]"
same,Potency,[6],"inconclusive: 49.1 µM [cytotoxic, partial curve, poor fit]"
same,Potency,[7],"inconclusive: 39 µM [rising, partial curve, poor fit]"
same,Potency,[8],"inconclusive: 55.1 µM [fluorescent, partial curve, poor fit]"
same,Potency,[9],"inconclusive: 55.1 µM [cytotoxic, single point]"
same,Potency,[10],"inconclusive: 13.8 µM [falling, partial curve, poor fit]"
same,"activity change, negative = inhibition",[11],inconclusive: -8.62%
CCCCCCCCCCCCCCCCCC[N+](C)(C)Cc1ccccc1,Potency,[1],inconclusive: 69.2 µM
same,activation,[2],inconclusive: 9.59% [at 78.9 µM]
same,"ratio activity, negative = inhibition",[3],inconclusive: -0.464% [cytotoxic] [at 81.1 µM]
same,Potency,[4],active: 44.1 µM
same,Potency,[5],"inconclusive: 27.6 µM [falling, partial curve]"
same,Potency,[12],active: 27.8 µM
same,Potency,[13],"inconclusive: 39.3 µM [rising, partial curve]"
same,Potency,[6],active: 11.1 µM
same,Potency,[7],"inconclusive: 35 µM [falling, partial curve, poor fit]"
same,Potency,[14],active: 13.9 µM
same,Potency,[8],"inconclusive: 62.3 µM [cytotoxic, single point]"
same,Potency,[15],"inconclusive: 55.5 µM [cytotoxic, single point]"
same,Potency,[9],active: 19.7 µM
same,Potency,[16],inconclusive: 55.5 µM [cytotoxic]
same,Potency,[10],active: 27.8 µM
same,activation,[17],inconclusive: -15.9% [at 81.1 µM]
same,Potency,[11],active: 22.1 µM
same,Potency,[18],active: 13.9 µM
same,Potency,[19],active: 7.84 µM
CCCCCCCCCCCCCCCCCCNC(=O)OC1CCN(C(=O)OC[C@H](COC(=O)N(Cc2cccc[n+]2CC)C(=O)c2ccccc2OC)OC)CC1,Potency,[1],inconclusive: 29.8 µM
same,Potency,[2],"inconclusive: 26.8 µM [cytotoxic, single point]"
same,Potency,[3],inconclusive: 33.5 µM [inhibitor]
same,Potency,[4],"inconclusive: 33.5 µM [cytotoxic, single point]"
same,Potency,[5],"inconclusive: 23.7 µM [falling, partial curve]"
same,Potency,[13],inconclusive: 31 µM
same,Potency,[14],active: 33.5 µM
same,Potency,[8],"inconclusive: 33.5 µM [activator, single point]"
same,Potency,[15],"inconclusive: 29.8 µM [cytotoxic, single point]"
same,Potency,[9],active: 26.6 µM
same,Potency,[16],"inconclusive: 29.8 µM [falling, single point]"
same,Potency,[10],"inconclusive: 33.5 µM [falling, single point]"
same,Potency,[17],inconclusive: 29.8 µM [inhibitor]
same,Potency,[19],active: 21.3 µM
